The record followed here is PubChem BioAssay AID1745853 (National Center for Advancing Translational Sciences (NCATS), 2022).

This is one part of the list. The main result of the screen is listed elsewhere. These columns were measured beside it and carry no call.

Common to all, as to experiment: Primary Screen for Target Class Profiling of Small Molecule Inhibitors of Methyltransferases
The target in test [1] is Glycine N-methyltransferase (Homo sapiens) (UniProt Q14749). To be noted: purified enzyme, MTase-Glo SAH luminescence; measured here: GNMT inhibition; at 40 µM; stronger effect = lower value. The method, boiled down:
(§1)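 Each enzyme was reacted with SAM and its substrate, with compounds tested once at 40 uM; SAH formed was read by MTase-Glo luminescence.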

The target in test [2] is Guanidinoacetate N-methyltransferase (Homo sapiens) (UniProt Q14353). To be noted: purified enzyme, MTase-Glo SAH luminescence; measured here: GAMT inhibition; at 40 µM; stronger effect = lower value. The method, boiled down:
as §1

Test [3] concerns the target Histamine N-methyltransferase (Homo sapiens) (UniProt P50135). To be noted: purified enzyme, MTase-Glo SAH luminescence; measured here: HNMT inhibition; at 40 µM; stronger effect = lower value. The method, boiled down: as §1
Test [4] concerns the target Nicotinamide N-methyltransferase (Homo sapiens) (UniProt P40261). The settings on record: purified enzyme, MTase-Glo SAH luminescence; measured here: NNMT inhibition; at 40 µM; stronger effect = lower value. The procedure, abridged:
as §1

For test [5], the target named is Phenylethanolamine N-methyltransferase (Homo sapiens) (UniProt P11086). To be noted: purified enzyme, MTase-Glo SAH luminescence; measured here: PNMT inhibition; at 40 µM; stronger effect = lower value. The method, boiled down: as §1
On the % scale 0 is the no-effect control and ±100 the full control effect.

Consider `O=C(Nc1ccccc1)c1cc2n(n1)CCN(C(=O)COc1ccccc1)C2`, for which the activity change, negative = inhibition was -6.61% in test [1]; -4.72% in test [2]; -1.75% in test [3]; -8.72% in test [4]; -3.42% in test [5].

Regarding `CN(C)S(=O)(=O)c1ccc2c(c1)/C(=C/c1cc3c([nH]1)CCCC3)C(=O)N2`, the activity change, negative = inhibition was -4.61% in test [1]; 7.66% in test [2]; 3.43% in test [3]; -7.65% in test [4]; -8.71% in test [5].

As for `Cc1cnc(C2CC2)n1CCNC(=O)NC1CCCCC1`, the activity change, negative = inhibition is -5% in test [1]; -7.13% in test [2]; -14.5% in test [3]; -13% in test [4]; 5.52% in test [5].

With `CCN(CC)C(=O)N1CCC(c2noc(COc3ccc(F)cc3)n2)C1` (stereo not given), the activity change, negative = inhibition in test [1] was -6.13%; in test [2], -11.5%; in test [3], -2.84%; in test [4], -16.2%; in test [5], -12%.

Take `COCCN1C(=O)c2c(NC(C)=O)c3cc(F)ccc3n2CC1(C)C(=O)NC1CCCC1` (stereo not given): the activity change, negative = inhibition was 2.43% in test [1]; 0% in test [2]; 3.84% in test [3]; 0.667% in test [4]; -3.39% in test [5].

Consider `CC1CCCC[C@H]2C(=O)C=C[C@H](O)[C@@H]2CC(=O)O1` (stereo not given in full), for which the activity change, negative = inhibition is -3.43% in test [1]; 1.32% in test [2]; 2.22% in test [3]; -10.2% in test [4]; 1.88% in test [5].

As for `C[C@@H](O)[C@H](NC(=O)c1ccc(C#Cc2ccc(CN3CCOCC3)cc2)cc1)C(=O)NO`, the activity change, negative = inhibition in test [1] was -3.91%; in test [2] it was 5.78%; in test [3], 11.3%; in test [4], -10%; in test [5] it was 3.44%.

Consider `CC(C)[C@H]1CCC(CO)=C[C@@H]1/C=C(\CO)C(=O)O`, for which the activity change, negative = inhibition in test [1] was 0%; in test [2], 1.37%; in test [3], 7.68%; in test [4], -8.17%; in test [5] it was 1.92%.

Take `CC(=O)OC[C@@]12[C@@H](OC(C)=O)C[C@@H](C)[C@](C)([C@@H]3C[C@H]4C=CO[C@H]4O3)[C@H]1CCC[C@]21CO1`: the activity change, negative = inhibition in test [1] is 0.522%; in test [2] it was 3.75%; in test [3], 6.38%; in test [4] it was -10.3%; in test [5], -0.224%.

`Cc1ccsc1CCNS(=O)(=O)c1ccc2[nH]c3c(c2c1)CCCC3`: the activity change, negative = inhibition in test [1] is -3.94%; in test [2], 1.6%; in test [3] it was -8.74%; in test [4] it was -12.8%; in test [5], -4.25%.

As for `Cc1ccc(Cn2c(=O)c3ccc(C(=O)NC(C)C)cc3n3c(=O)n(CC(=O)c4ccccc4)nc23)cc1`, the activity change, negative = inhibition is -1.99% in test [1]; 0.788% in test [2]; -4.55% in test [3]; -0.736% in test [4]; -2.68% in test [5].

For the compound `O=c1c2c(CO)c(-c3ccccc3)nn2ccn1Cc1cc(=O)n2ccccc2n1`, the activity change, negative = inhibition was -4.22% in test [1]; -7.24% in test [2]; 0.517% in test [3]; -2.59% in test [4]; 0.409% in test [5].

Regarding `CN(CCc1noc(C2CN(S(=O)(=O)c3ccccc3)C2)n1)C(=O)c1ccncc1`, the activity change, negative = inhibition is -1.15% in test [1]; 3.68% in test [2]; 0.779% in test [3]; -0.465% in test [4]; 12.8% in test [5].

Take `CCn1c(=O)n(CC)c2cc(S(=O)(=O)Nc3cccc(F)c3)ccc21`: the activity change, negative = inhibition in test [1] came out at 0.176%; in test [2], 5.55%; in test [3], 7.52%; in test [4], 9.54%; in test [5] it was 1.72%.

`COc1ccc(OCc2cc(C(=O)NC(CO)C(C)C)no2)c2ccccc12` (stereo not given): the activity change, negative = inhibition in test [1] was -50.1%; in test [2] it was -27.9%; in test [3], -2.6%; in test [4], -9.93%; in test [5], -63.2%.

Turning to `COc1ccc(Cl)cc1C(=O)N1CC(F)(F)C[C@H]1c1nc(C)no1`, the activity change, negative = inhibition in test [1] was -2.85%; in test [2] it was -3.66%; in test [3] it was -1.87%; in test [4], -8.55%; in test [5], -5.1%.

Turning to `CCCNC(=O)[C@@H]1Cc2cn(Cc3nccn3C)c3cccc(c23)[C@H](CC(C)C)N1`, the activity change, negative = inhibition in test [1] was -14.7%; in test [2], -7.48%; in test [3], -6.04%; in test [4], -23%; in test [5], -23.4%.

Turning to `Cc1ccc(CN2CC[C@H](c3nc4ccc(C)cc4[nH]3)C2)cc1`, the activity change, negative = inhibition is -11.2% in test [1]; -6.1% in test [2]; -29% in test [3]; -26.2% in test [4]; -20.7% in test [5].

Turning to `O=C(NCc1nc2ccccc2c(=O)n1-c1ccc(F)cc1)Nc1ccc(Cl)c(C(F)(F)F)c1`, the activity change, negative = inhibition was -2.13% in test [1]; -33.9% in test [2]; -6.85% in test [3]; -49.4% in test [4]; -27% in test [5].

As for `CC(=O)Nc1c2n(c3ccccc13)CC(C)(C(=O)NC1CCCCC1)N(C1CCCCCC1)C2=O` (stereo not given), the activity change, negative = inhibition in test [1] is 4.27%; in test [2] it was 0%; in test [3], 7.04%; in test [4], -0.789%; in test [5], 4.46%.
